Measurements from PubChem BioAssay AID485360 (National Center for Advancing Translational Sciences (NCATS), 2010).
About 1,500 (0.65%) of roughly 230,000 compounds were called active. This list was built around the results that the source calls inconclusive (neither active nor inactive); the mix of calls is not that of the screen. Calls come from the whole dose curve; as a rule, active = well fitted inhibition curve with a large enough effect; inconclusive = small, poorly fitted or top-dose-only effect; inactive = no such curve, though single readings can be large or run the other way. Potencies of inconclusive entries are doubtful fits and often do not repeat.

Target: Lethal(3)malignant brain tumor-like protein 1 (Homo sapiens) (UniProt Q9Y468)
Test: qHTS Assay for the Inhibitors of L3MBTL1; note: nearly all actives have a fitted effect of over 60% in size
Conditions: AlphaScreen L3MBTL1–H3K9me1 peptide binding; activity, negative = inhibition: at 57.1 µM (top of the series)
Outline: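 L3MBTL1 (50 nM) pre-complexed 30 min with biotinylated H3(1-15)K9me1 peptide (75 nM), then compounds added for 30 min at room temperature; AlphaScreen streptavidin donor/nickel chelate acceptor beads (10 ug/mL final) read after 30 min dark incubation.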
% is set by controls: 0 for no effect and ±100 for the full control effect; potency is the fitted concentration of half-maximal effect; tags give direction and shape of the fitted curve.

Sequence of UniProt Q9Y468 (Q9Y468 whole entry, looked up): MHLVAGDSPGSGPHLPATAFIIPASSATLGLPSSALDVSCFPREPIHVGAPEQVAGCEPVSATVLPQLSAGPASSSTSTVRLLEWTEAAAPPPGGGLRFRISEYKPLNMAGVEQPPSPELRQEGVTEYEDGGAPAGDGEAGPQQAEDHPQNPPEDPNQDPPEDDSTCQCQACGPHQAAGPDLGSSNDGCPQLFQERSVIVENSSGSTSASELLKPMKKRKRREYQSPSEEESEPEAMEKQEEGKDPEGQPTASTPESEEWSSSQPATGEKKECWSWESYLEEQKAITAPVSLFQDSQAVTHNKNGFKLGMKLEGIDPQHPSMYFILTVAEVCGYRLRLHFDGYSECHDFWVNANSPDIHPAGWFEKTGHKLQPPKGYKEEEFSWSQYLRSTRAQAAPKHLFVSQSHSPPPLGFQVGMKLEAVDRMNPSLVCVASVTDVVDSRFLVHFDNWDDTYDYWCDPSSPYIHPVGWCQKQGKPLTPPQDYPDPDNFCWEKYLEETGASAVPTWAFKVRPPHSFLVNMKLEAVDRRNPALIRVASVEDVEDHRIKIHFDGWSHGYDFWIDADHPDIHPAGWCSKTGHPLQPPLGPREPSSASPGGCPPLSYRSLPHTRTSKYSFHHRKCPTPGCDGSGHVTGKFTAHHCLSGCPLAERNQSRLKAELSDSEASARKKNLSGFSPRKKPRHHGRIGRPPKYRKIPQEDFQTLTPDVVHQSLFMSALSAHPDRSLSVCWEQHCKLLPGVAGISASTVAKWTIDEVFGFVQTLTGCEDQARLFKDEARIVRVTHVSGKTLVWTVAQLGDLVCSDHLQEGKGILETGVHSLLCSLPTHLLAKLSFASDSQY

SMILES	Potency	activity, negative = inhibition
C/C(=N\NC=O)c1ccncc1	inconclusive: 0.398 µM [inhibitor, full curve, poor fit]	
COc1ccc(NC(=O)CN(C)C(=O)c2ccccc2Sc2ncnc3sc(C)c(C)c23)cc1	inconclusive: 0.708 µM [inhibitor, single point]	
O=[N+]([O-])c1ccc(C=Nc2ccc(Cl)c([N+](=O)[O-])c2)s1	inconclusive: 14.1 µM [inhibitor, partial curve]	
O=C(O)Cn1ncc2c1-c1ccoc1CC2	inconclusive: 28.2 µM [inhibitor, single point]	
CC(C)CCN1CCN(Cc2cnc(N3CCCC3)s2)CC1CCO (stereo not given)		inactive: 4.97%
CC1CC(C)(C)Nc2ccc(OC(=O)c3ccco3)cc21 (stereo not given)	inconclusive: 22.4 µM [inhibitor, single point]	
Nc1c(Cl)ncnc1N/N=C/c1ccccn1	active: 7.94 µM	
CCCNC(=O)c1cccc(Br)c1	inconclusive: 39.8 µM [inhibitor, single point]	
COc1ccc(N2CCN(C(=O)c3cccc(Br)c3)CC2)c([N+](=O)[O-])c1		inactive: -15.6%
O=[N+]([O-])c1cc(/C=N/Nc2nc3ccccc3[nH]2)c(O)cc1O	inconclusive: 31.6 µM [inhibitor, single point]	
CCCCCCNC(=O)c1cc(-c2ccco2)nc2ccccc12	active: 14.1 µM	
Cc1ccc(NC(=S)NNC(=O)c2ccccc2O)c(C)c1	inconclusive: 0.562 µM [inhibitor, full curve, poor fit]	
C/C(=N\NC(=O)CSc1ncccn1)c1ccc2c(c1)OCCO2	inconclusive: 0.1 µM [inhibitor, full curve, poor fit]	
Cc1ccc(C(=O)O)cc1NC(=S)NC(=O)c1ccc([N+](=O)[O-])cc1Cl		inactive: -7.02%
Cc1cc(N2CCOCC2)ccc1/C=C1\SC(=O)N(C(C)C)C1=O		inactive: 7.8%
O=C(NCCc1ccc(Cl)cc1)c1ncn[nH]1	inconclusive: 39.8 µM [inhibitor, single point]	
Cc1cccc(NC(=O)N2CCC(NC(=O)c3ccco3)CC2)c1	inconclusive: 8.91 µM [inhibitor, single point]	
CCN(CC)c1ccc(/C=C(\C#N)c2nc(-c3cccs3)c(NC(C)=O)s2)cc1	inconclusive: 15.8 µM [inhibitor, partial curve]	
CSc1ccc(/C=N/N2CCN(Cc3ccc(C)cc3C)CC2)cc1	inconclusive: 14.1 µM [inhibitor, partial curve]	
O=C(Nc1ccc(Cl)cc1C(=O)O)c1ccc2c(c1)C(=O)N(Cc1ccco1)C2=O	inconclusive: 28.2 µM [inhibitor, single point]	
